In PubChem BioAssay AID1671194 (National Center for Advancing Translational Sciences (NCATS), 2021):
Where “and” joins values, the source holds several entries; their conditions need not be identical. Equal values may be shown once. In all, about 140,000 compounds went through this assay and about 240 (0.17%) were called active. This list was built around the results that the source calls inconclusive (neither active nor inactive); the mix of calls is not that of the screen. Calls come from the whole dose curve; as a rule, active = well fitted inhibition curve with a large enough effect; inconclusive = small, poorly fitted or top-dose-only effect; inactive = no such curve, though single readings can be large or run the other way. Where the call is inconclusive, the potency comes from a doubtful curve fit.

assay: Primary qHTS assay for inhibitors of alpha-synuclein gene (SNCA) expression; details: HEK-293 SNCA-luciferase knock-in, luminescence, 24 h; activity change, negative = inhibition: at 57.2 µM (top of the series) unless noted; note: nearly all actives have a fitted effect of over 45% in size;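 for activity change, negative = inhibition: plate controls were DMSO cells for no effect and cell-free wells for full effect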
Potency is the fitted concentration of half-maximal effect; tags give direction and shape of the fitted curve.

SMILES	activity change, negative = inhibition	Potency
Clc1ccc2nc(N3CCC(NCCc4cccnc4)CC3)sc2c1	inactive: 48.9%	
Cc1ccc(C(=O)N2CCc3onc(-c4cccc5ccccc45)c3C2)cc1		inconclusive: 39.8 µM [inhibitor, single point]
O=C(NCCc1ccccc1)c1ccc2nnc(-c3ccoc3)n2c1	inactive: -13.6%	
COc1cc2nc(Cl)nc(N)c2cc1OC	inactive: -19.2% [at 25.6 µM]	
O=C(NC1CCN(c2cc(-c3ccc(Cl)cc3)[nH]n2)C1)c1ccc2c(c1)OCO2 (stereo not drawn)	inactive: -14.3%	
CC(C)Cn1c(/C=C/c2ccc(F)cc2)nc2ccccc21	inactive: -19.6%	
O=C(c1cccs1)N1CCCc2cc(NS(=O)(=O)c3ccc(F)cc3)ccc21		inconclusive: 39.8 µM [inhibitor, single point]
COCCCNC(=O)CCc1c(C)nc2cc(-c3ccc(Cl)cc3)nn2c1C		inconclusive: 3.98 µM [inhibitor, full curve, poor fit]
Cc1cnc(CCNC(=O)C2(c3ccccc3)CC2)n1C1CCCCCC1	inactive: -18%	
O=C1c2cccnc2OC2(CCCC2)CN1CCOc1ccccc1		inconclusive: 10 µM [inhibitor, single point]
O=C(NCCc1ccc(Cl)cc1)c1cc(-c2ccccc2)c2nncn2n1		inconclusive: 35.5 µM [inhibitor, partial curve, poor fit]
O=C1CCCN1c1ccc(Cn2ccn3nc(-c4ccccc4)c(CO)c3c2=O)cc1	inactive: 29.8%	
Cc1cc(OC2CN(C(=O)c3ccccc3F)C2)ccc1F	inactive: 16.4% [at 87.6 µM]	
Cc1cccc(CS(=O)(=O)c2ncc(Cl)c(C(=O)NCc3ccccc3)n2)c1		inconclusive: 39.8 µM [inhibitor, single point]
CCn1c(CO)nnc1C1CC(NC(=O)c2nnc3nc(C)ccn23)C1 (stereo not drawn)	inactive: -0.352%	
Cc1ccc(C2Cn3nnc(C(=O)N4CCC(C(=O)Nc5cc(F)cc(F)c5)CC4)c3CO2)cc1 (stereo not drawn)	inactive: 81.9%	
c1csc(-c2ccnc(N[C@H]3CO[C@H]4[C@@H]3OC[C@@H]4NCC3CCCCC3)n2)c1		inconclusive: 56.2 µM [inhibitor, single point]
CC(C)(c1nc(-c2cccnn2)no1)n1cccc1		inconclusive: 6.31 µM [inhibitor, single point]
COc1ccccc1CN1CCCn2nc(C)c(-c3cccnc3N3CCOCC3)c21	inactive: -12.3% [at 87.6 µM]	
CCNC(=O)Nc1ccc(OCC(=O)NC(C)c2ccc(OC)c(OC)c2)nc1 (stereo not drawn)		inconclusive: 7.08 µM [inhibitor, single point]
CCOCC(=O)N1CCC2(CC1)CC(N(Cc1ccc(F)cc1)C1CC1)CCO2 (stereo not drawn)		inconclusive: 6.31 µM [inhibitor, partial curve, poor fit]
O=C(Nc1ccc(F)cc1F)c1ccc(-n2cnnc2)cc1	inactive: 4.08%	

SMILES	activity change, negative = inhibition	Potency
COc1cccc(-c2ccc(CN3CCCC(c4nc5ccc(C)cc5c(=O)[nH]4)C3)cc2)c1 (stereo not drawn)		inconclusive: 39.8 µM [inhibitor, single point]
Cc1cc(C)cc(-c2ccc(CN3CCCC(c4nc5ccc(F)cc5c(=O)[nH]4)C3)cc2)c1 (stereo not drawn)		inactive and inconclusive: 3.16 µM [inhibitor, full curve]
COC(=O)[C@@H]1Cc2c[nH]c3cccc(c23)[C@H](CC(C)C)N1		inconclusive: 31.6 µM [inhibitor, single point]
CCCCN1C(=O)[C@@H]2C[C@@H](O)CN2C2(CN(C3CCN(C)CC3)C2)C1=O		inconclusive: 35.5 µM [inhibitor, single point]
Cn1nccc1C(=O)NC1CCCN(c2cc(-c3ccc(F)cc3)[nH]n2)C1 (stereo not drawn)		inconclusive: 8.91 µM [inhibitor, single point]
CCC1Oc2ccc(NC(=O)c3ccccc3F)cc2CN(CCc2ccc(OC)c(OC)c2)C1=O (stereo not drawn)	inactive: -18.3%	
C[C@@H]1CN(C2(C(=O)NCc3ccncc3)Cc3ccccc3C2)C[C@H](C)O1		inconclusive: 39.8 µM [inhibitor, single point]
Cc1occc1C(=O)N1CCC2(CCCN(Cc3cccnc3)C2=O)C1 (stereo not drawn)	inactive: 17.8%	
CCCN(C)C(=O)CCc1ccc2c(c1)CN(S(C)(=O)=O)CCO2		inconclusive: 39.8 µM [inhibitor, partial curve, poor fit]
Cc1cc(C)cc(N(CC(=O)NCc2ccccc2Cl)S(=O)(=O)c2c(C)noc2C)c1		inconclusive: 39.8 µM [inhibitor, single point]
O=C(NC1CCNCC1)c1[nH]ncc1NC(=O)c1c(Cl)cccc1Cl		inconclusive: 1.92 µM [inhibitor, full curve]
O=C(c1ccncc1)N1CCC(Cc2noc(C3CC3)n2)C1 (stereo not drawn)		inconclusive: 2 µM [inhibitor, full curve, poor fit]
CC(C)CNC(=O)c1coc(COc2ccc3c(c2)C(c2cccc(F)c2)N(C(=O)C2CC2)CC3)n1 (stereo not drawn)		inconclusive: 39.8 µM [inhibitor, single point]
COC1C(=O)N(c2cccc(F)c2)C12CCN(S(=O)(=O)c1ccc(C#N)cc1)CC2 (stereo not drawn)	inactive: 3.59%	
CC1=C[C@@H](CNC(=O)NC(C)C)[C@H](C(C)C)C[C@H]1Cc1nnc(-c2ccncc2)o1		inconclusive: 39.8 µM [inhibitor, single point]
CC(C)c1ccc(OCc2nnc(C(=O)N3CCC[C@@H]3C)n2-c2cccnc2)cc1	inactive: 3.16% [at 87.6 µM]	
COc1ccnc(-c2nnc3ccc(N(C)Cc4ccccc4)nn23)c1		inconclusive: 8.91 µM [inhibitor, full curve]
Cc1ocnc1C(=O)N1CCc2nc(N)nc(N3CC[C@H](O)C3)c2CC1		inconclusive: 39.8 µM [inhibitor, single point]
COc1ccc(CN2Cc3[nH]cnc3C[C@H]2C(=O)NCc2ccc(C#N)cc2)c2ccccc12	inactive: -19.6%	
O=C(Cn1c(=O)oc2cc(S(=O)(=O)NC3CCCC3)ccc21)Nc1ccc(F)c(F)c1		inconclusive: 39.8 µM [inhibitor, single point]
CCNC(=O)c1cccnc1OC1CCN(C(=O)c2ccc(C)c(C)c2)C1 (stereo not drawn)		inconclusive: 11.2 µM [inhibitor, partial curve, poor fit]
